Results: the RNAGym collection of RNA variant scans (doi:10.7554/elife.90254)
The source gives no read counts; variants with many changes may rest on few reads.

B1: LINE1-mini (parent)
chain: GGCAGAGCUCAACACAGCGUGGCAAAGUGGCUGUGGCUAGACUGCC

Variants of: B1
Experiment: self-cleavage, relative activity (ratio to wild type); higher = more cleavage; in vitro, sequencing; the parent is a self-cleaving ribozyme

Variant	self-cleavage
GGCAGAGGUCAACACAGCGUGGCAGAGUGGCUGUGGCUAGAAUGCC	0.02
GGCAGAGCUCAACACAGCGUGGCAAGGUGGCUAUUGCUAUACUGCC	0.03
GGCAGAGCUCAACACGGCGUGACAAAGUGGCUGUGGCAAGACUGUC	0.46
GGCAGAGUUCAACACAGCGUGGCAAAGUGGCUGUGGUUAGUCUGCC	0.5
GGUGAGGCUCAACACAGCGUGGCAAAGUGGCUGUGGUUAGACUGCC	0.06
GGCAGAGCUCAACACAGCGUUGCAAAGGGCCUGUGGCUAGACUGCC	1.54
GGCAGAGCUCAACACAGCGUGGCAAAUUGGCCGUGGCUAGAUUGCC	0.05
GGCAGAGUUCAACACAGCGUGGCAAAGUGGCUGGGGGUAGACUGCC	0
AGCAGAGCUCAACACAGCGUGGCAAAAUGGUUGUGGCUAGACUGCC	0.8
GACAGAGCUCAACACAGCGUGGCAAAGUGGCUGUGGUUAGACAGCC	0.2
GGCAGAGCUCAUCACACCGUAGCAAAGUGGCUGUGGCUAGACUGCC	0.18
GGCAGAGCUCUACACAGCGUGGCCAAGUGGCUAUGGCUAGACUGCC	0.03
GGCAGACCUCAACGAAGCGCUGCAAAGUGGCUGUGCCUAGAGUGCC	0.02
AGCAGAGCACAAAACAGCUUGGCAAAGUGGCUGUGGCUAAACUGCC	0.23
GGCAGAGCUCAACACAGCGUGGCAAAGUGGCUGUGCCUAGUCUACC	0.07
GGCACAGAUCUACACAGCGUGGCAAAGUGGCUGUGUCUAGACUGCC	0
CGCAGAGCUCAACACAGCGUAGCAAAGUAGCUGUGGCUAGACUGCC	0.15
GGCAAAACUCCACACAGCGUGGCAAAGUGGCUGUGGCUAGACUGCC	0.02
GGCAAAGAUCAACACAGGGUGGCAAAGUGGCUGUGGCUAGACUGCC	0.23

Variant	self-cleavage
GGCAGAGCUCAACACCGCGUGGCAAACUAUCUGUGACAAGACUGCC	0.05
UGCAGAGCUCAACACAGCGUGGCUAAGUGGCUGUGGCUAGACUACC	0.17
GGCAGAGCUCAACACCGCGUGCCAAAGUGGUUAUGGCUAGACUGCG	0.02
GGUAGAGCUCAAUACAGCGUGGCAAAGUGGCUGUGGAUAGACUGUC	0.42
GGCAGUGCUCAACACAGCGUGACAAAGUGGCUGUGGCUAGACUGUC	0.56
GGACGAGCUCAACACACCGUGGCAAAGUGGCUGUGGCUAGACUGCC	0.03
GGCAGAGCUCAACACAGCGUGGCAACGCGGCUAUGGCUAGACUGCC	0.54
GGAAGAGCUCAACAAAGCGUGGCAAAGUGGCUGUGAUUAGAGUGCC	0.11
GGCAGAGUUCAAGACAGCGUGGCAAAGUGGCUGUGGCUAGACUGCA	0.06
GGCAGCGCUCAACACAGCGUGGCAAAGUGGAUGUGGCUCGUCUGCC	0.04
GGCAGAGCUCGACAAGGCGUGGCAAAGUGGCUGUGGCUAGACUGCC	0.03
GGCAGAGCUCAACACAGCGUGGCAAAGUGGCUGUGACGAGCCUGCC	0
GGAAGAGCGCAACACAGCGUGGCAAAGUCGCUGUGGCUAGACUGCC	0.09
GGCUGAGCUCAACACAGCGUGGCAAGGUUGCUGUGGCUAGACUGCC	0.14
GUCAGAGCUCAACCCAGCGUGGCAAAGAGGCUGUGGCUAGACUGCU	0
GGCAGAGCGCAACACAGGGUGCCAAAGUGGCUGUGGCUAGACUGGC	0.11
GGCAGAUCUUAACACAGCGUGAGAAAGUGGCUGAGGCUAGACUGCC	0.01
GGCAGAUCUCAUCACGGCGUGGCAGGGUGGCUGUGGCUAGACUGCC	0.09
GCCAGAGCUCACCACAGCGUGGAAAAGUGGCUGUGGCUAGACUGCC	0.04

Variant	self-cleavage
GGCAUAGCUCAACACAGCGUGGCAAAGUGGCUGUAGCGAGACUGCC	0.01
GGCAGAGCUCAACACAGUGUGGCAAAGUGGAUGUGGCAACACUGUC	0
AGCAGAGCUCAACACAGCGUGGCAAGGCCGCUGUGGCAAGACUGCC	0.01
GGCAGAGCGCAACACAGCGUGGCAUAGUGGCUGUGGCUUGAAUGCC	0.04
GGCCGAGCGCAACACAGCGUGGCAAAGUGGUUGUGGCUAGAGUGCC	0.03
GGCAGAGCUCAACACAGCGUGGCGAAGUGGCUGUGGCUAUACUGCA	0.04
GACAGAGCUCAACACAGCGUUGCAAAGUGGCGGUGGCUAGACUGCG	0.28
GACAGAGCUCAACACAGUGUGGCAAGGUGGCUGUGGCUAGACUGCC	0.8
CGCAGAGCUCAACACAGCGUCGCAACGUGGCUGUGGCUAGGCUGCC	0.01
GGCAGGGCUAAACACCGCGUGGCAAAGUGGCUGUGGCGAGACUGCC	0.01
GACAGAGCUCAACACGGCGUGGCAAAGUGGCUGUGGCUACACUGCA	0.05
GGCAGAGCUAAACACAGUGAGGCAAAGAGGCUUUGGCUAGACUGCC	0.03
GGCAGAGCUCAACACCGCAUGGCAAAGUGGCUGUGGCUAGACUGCA	0.15
GGCAGAGCUCAACACAGCGUUGCAAAGUGGCUGUGACUAGAGUGCC	0.03
GUCAGAGCUCAACACAGCGUGGCAAAGUGGCUGUGGCUAGAUCGCC	0.06
GGCAGAGCUCAGCACAGCGUGGCAAAGUGGUUGUGACUAGACUGCC	0.03
GGCAGAGCACAACACACCGAGGCAAAGUGGCUGAGGCUAAACUGCC	0.08
UGAAGAGAUUAACAAAGCGUGGCAAAGUGGCUGUGGCUAGACUGCC	0.19
